# Reference: PubChem BioAssay (Tox21)
# This list was built around the results that the source calls inconclusive (neither active nor inactive); the mix of calls is not that of the screen. For some assays here: A potency beside an inconclusive call is a rough fit, not a confirmed value. Activity calls are given as the source filed them. Unless noted, calls come from the whole dose curve; as a rule, active = well fitted curve in the direction sought with a large enough effect in the repeat runs; inconclusive = weak or mixed curves; inactive = no such curve, though single readings can be large; an effect the other way counts as inactive or inconclusive.
# Columns and labels:
# [1] = qHTS assay to identify small molecule antagonists of the estrogen related receptor (ERR) signaling pathway from Tox21 library - cell viability counter screen (AID 1224834); note: nearly all actives have a fitted effect of over 30% in size; note: potency is the fitted concentration of half-maximal effect; for viability change, negative = cytotoxic: % is set by controls: 0 for no effect and ±100 for the full control effect
# How it was run: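 Seeded ERR cells were rested 6 h at 37 C/5% CO2 before compounds, positive and negative controls or DMSO were added. Incubation continued for 17.5 h, and viability was then quantified by CellTiter-Fluor fluorescence.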
# [2] = qHTS assay to identify small molecule agonists of the estrogen related receptor signaling pathway with the pleiotropic PPARgamma coactivator (PGC) (AID 1224823); details: ERR/PGC reporter cell line, luciferase agonist mode; note: potency is the fitted concentration of half-maximal effect
# How it was run: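 Luminescence readout (One-Glo, 30 min RT) from PGC/ERR cell line treated 18 h at 37 C with pin-tool-delivered DMSO compound solutions; cells plated 6 h before dosing. Quantitative HTS format.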
# [3] = qHTS assay to identify small molecule agonists of the constitutive androstane receptor (CAR) signaling pathway - cell viability counter screen (AID 1224836); note: potency is the fitted concentration of half-maximal effect; nearly all actives have a fitted effect of over 45% in size
# How it was run: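 23 h treatment, 37 C, 5% CO2. Cell line: HepG2 stably expressing hCAR with a CYP2B6-2.2kb construct. Co-treatment: PK11195, 0.75 uM final. Read-out: CellTiter-Fluor fluorescence intensity.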
# [4] = qHTS assay to identify small molecule antagonists of the constitutive androstane receptor (CAR) signaling pathway - cell viability counter screen (AID 1224837); note: potency is the fitted concentration of half-maximal effect; nearly all actives have a fitted effect of over 45% in size
# How it was run: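 To flag cytotoxic false antagonists, HepG2 hCAR/CYP2B6-2.2kb cells were treated 23 hr with 15-concentration compound series and 50 nM CITCO at 37 C/5% CO2; CellTiter-Fluor fluorescence was the measured end point.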
# [5] = qHTS assay to identify small molecule antagonists of the estrogen related receptor signaling pathway with the pleiotropic PPARgamma coactivator (PGC) from Tox21 10K library - cell viability counter screen (AID 1224840; active = well fitted cell-killing curve with a large enough effect in the repeat runs, not every such curve was filed as active; inconclusive = weak or mixed curves, or effect the other way; inactive = no such curve, though single readings can be large or run the other way; note: potency is the fitted concentration of half-maximal effect; nearly all actives have a fitted effect of over 40% in size)
# How it was run: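 Seeded PGC/ERR cells (2,000/well, 6 h, 37 C/5% CO2) get compound by pin tool; 17.5 h incubation at 37 C; CellTiter-Fluor added, 30 min, fluorescence measured.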
# [6] = qHTS assay to identify small molecule agonists of the estrogen related receptor signaling pathway with the pleiotropic PPARgamma coactivator (PGC) from Tox21 10K library (AID 1224842); note: potency is the fitted concentration of half-maximal effect; nearly all actives have a fitted effect of over 15% in size
# How it was run: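 Luminescence from One-Glo (30 min, room temperature) measured after PGC/ERR cells had 18 h at 37 C with pinned compound (23 nL in DMSO). Cells had been seeded at 2,000 per well and pre-incubated 6 h.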
# [7] = qHTS assay to identify small molecule agonists of the hypoxia (HIF-1) signaling pathway - cell viability counter screen (AID 1224844; calls by dose curve; note: potency is the fitted concentration of half-maximal effect; nearly all actives have a fitted effect of over 50% in size)
# How it was run: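 HRE-bla ME-180; 0.5% dFBS; cpd 17 h, 37C, 5% CO2; CellTiter-Glo lum., 30 min RT, post-FRET read, same wells.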
# [8] = qHTS assay to identify small molecule antagonists of the estrogen related receptor (ERR) signaling pathway from Tox21 library (AID 1224848); note: potency is the fitted concentration of half-maximal effect; nearly all actives have a fitted effect of over 50% in size
# How it was run: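 ERR cell line, 2,000 cells/well. 6 h settle, then compound (DMSO) added; 18 h at 37 C; ONE-Glo luminescence after 30 min RT.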
# [9] = qHTS RealTime-Glo MT Cell Viability Assay in HepG2 cells - 24 hour (AID 1224867); note: potency is the fitted concentration of half-maximal effect; nearly all actives have a fitted effect of over 50% in size
# How it was run: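 Viability was tracked continuously by NanoLuc luminescence from prosubstrate reduced by living HepG2 cells, at successive time points over 40 h of compound exposure. Cells with reagent were preincubated 5 h at 37 °C before compound addition.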
# [10] = qHTS RealTime-Glo MT Cell Viability Assay in HEK293 cells - 32 hour (AID 1224868); note: potency is the fitted concentration of half-maximal effect; nearly all actives have a fitted effect of over 50% in size
# How it was run: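 Viability tracked continuously by luminescence as live cells reduce a prosubstrate for NanoLuc; HEK293 cells preincubated 5 h, compound-treated at 37 C, and read at 0, 8, 16, 24, 32 and 40 h.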
# [11] = molecular target: Luciferin 4-monooxygenase (Photinus pyralis) (UniProt P08659); assay: qHTS assay to identify small molecule inhibitors of firefly luciferase (AID 1224835); note: nearly all actives have a fitted effect of over 25% in size; note: potency is the fitted concentration of half-maximal effect
# How it was run: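 Inhibition of purified Photinus luciferase is measured by luminescence. Substrate levels (D-luciferin, ATP) sit at their KM values. Each compound is tested in a concentration series.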
# [12] = molecular target: Nuclear receptor subfamily 1 group I member 3 (Homo sapiens) (UniProt Q14994); assay: qHTS assay to identify small molecule antagonists of the constitutive androstane receptor (CAR) signaling pathway (AID 1224838);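 note: HepG2 cells stably expressing hCAR with CYP2B6 luciferase reporter stimulated by CITCO; % is set by controls: 0 for no effect and ±100 for the full control effect; nearly all actives have a fitted effect of over 40% in size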
# How it was run: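 Human hepatoma HepG2 cells expressing hCAR and a CYP2B6 promoter (2.2 kb) luciferase construct; compound titration (15 points) with 50 nM CITCO final, 24 h at 37 C/5% CO2; luminescence via ONE-Glo after 30 min at room temperature.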
# [13] = qHTS assay to identify small molecule agonists of the hypoxia (HIF-1) signaling pathway (AID 1224846; active = well fitted activation curve with a large enough effect in the signal ratio in the repeat runs, not every such curve was filed as active; inconclusive = weak or mixed curves; the % refers to the signal ratio; note: % is set by controls: 0 for no effect and ±100 for the full control effect); details: HRE-bla ME-180 cells, beta-lactamase ratio, 17 h; activation: at 76.8 µM (top of the series) unless noted
# How it was run: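 Reporter induction in HRE-bla ME-180 cells is taken as agonism: cells sit 5 hrs after plating, receive compounds or DMSO only, incubate 17 hrs at 37C under 5% CO2, and are loaded with CCF4-AM for beta-lactamase FRET measurement.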
# [14] = qHTS assay to identify small molecule antagonists of the estrogen related receptor signaling pathway with the pleiotropic PPARgamma coactivator (PGC) from Tox21 10K library (AID 1224841; call rule not given here)
# How it was run: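 Test chemicals dissolved in DMSO were applied to pre-incubated (6 h) PGC/ERR cells at 2,000 cells/well for an 18 h, 37 C treatment; reporter luminescence was then read using One-Glo.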
# [15] = qHTS assay to identify small molecule agonists of H2AX (AID 1224845; active = well fitted activation curve with a large enough effect in the signal ratio in the repeat runs, not every such curve was filed as active; inconclusive = weak or mixed curves; the % refers to the signal ratio; note: potency is the fitted concentration of half-maximal effect); details: CHO-K1 phospho-H2AX Ser139 HTRF, 3 h; activation (H2AX phosphorylation): at 154 µM (top of the series) unless noted
# How it was run: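 Phospho-H2AX Ser139 measured by HTRF (ex 320 nm; em 665 and 620 nm) after 24 hr antibody incubation. Compounds, 15 concentrations, 0.76% DMSO, were applied to CHO-K1 cells for 3hr at 37C before lysis.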
# [16] = qHTS assay to identify small molecule agonists of H2AX - cell viability counter screen (AID 1224847; calls by dose curve; note: potency is the fitted concentration of half-maximal effect; nearly all actives have a fitted effect of over 30% in size)
# How it was run: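 Compounds tested at 15 concentrations were incubated 3 hr at 37C with wild-type CHO-K1 cells; cellular ATP-based luminescence (CellTiter-Glo) indicated viability.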
# Tags give direction and shape of the fitted curve or compound fluorescence and quenching.
# UniProt P08659, sequence (P08659 whole entry, looked up): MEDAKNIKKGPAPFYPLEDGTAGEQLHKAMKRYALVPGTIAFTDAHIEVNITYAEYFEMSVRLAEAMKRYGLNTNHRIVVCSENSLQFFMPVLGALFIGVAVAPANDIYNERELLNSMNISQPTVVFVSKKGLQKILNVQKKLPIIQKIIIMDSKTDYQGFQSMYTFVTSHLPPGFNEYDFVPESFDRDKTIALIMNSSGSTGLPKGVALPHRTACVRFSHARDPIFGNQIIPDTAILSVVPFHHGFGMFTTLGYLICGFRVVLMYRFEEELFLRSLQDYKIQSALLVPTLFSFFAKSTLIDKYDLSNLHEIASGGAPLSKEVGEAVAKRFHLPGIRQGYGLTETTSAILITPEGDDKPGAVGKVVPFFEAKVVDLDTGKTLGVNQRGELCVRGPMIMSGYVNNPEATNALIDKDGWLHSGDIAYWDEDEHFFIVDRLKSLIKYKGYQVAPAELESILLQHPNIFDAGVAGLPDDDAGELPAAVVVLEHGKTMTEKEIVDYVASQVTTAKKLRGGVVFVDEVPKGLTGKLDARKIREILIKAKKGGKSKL
# UniProt Q14994, sequence (Q14994 whole entry, looked up): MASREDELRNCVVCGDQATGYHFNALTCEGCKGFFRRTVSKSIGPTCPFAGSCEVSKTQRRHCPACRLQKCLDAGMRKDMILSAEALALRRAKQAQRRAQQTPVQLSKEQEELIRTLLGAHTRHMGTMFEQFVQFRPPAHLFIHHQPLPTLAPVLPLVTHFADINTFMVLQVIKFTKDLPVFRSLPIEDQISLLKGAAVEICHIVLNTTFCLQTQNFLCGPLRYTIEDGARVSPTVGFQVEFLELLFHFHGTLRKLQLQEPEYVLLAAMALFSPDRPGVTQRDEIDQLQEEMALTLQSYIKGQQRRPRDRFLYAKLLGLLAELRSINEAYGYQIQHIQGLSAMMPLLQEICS
smiles,measurement,setting,value
CCNc1cccc(C)c1,Potency,[1],inactive
CCCOCC(C)O (centres undefined),Potency,[1],inactive
CNCCc1ccccn1,Potency,[1],inactive
CC(C)(O)c1ccc(C(C)(C)O)cc1,Potency,[1],inactive
CNCCCC1c2ccccc2C=Cc2ccccc21,Potency,[2],inconclusive: 31 µM [activator]
same,Potency,[3],inconclusive: 29.8 µM [cytotoxic]
same,Potency,[4],"inconclusive: 33.5 µM [cytotoxic, single point]"
same,Potency,[5],"inconclusive: 26.6 µM [cytotoxic, partial curve, poor fit]"
same,Potency,[6],"inconclusive: 33.5 µM [activator, single point]"
same,Potency,[7],inconclusive: 26.8 µM [cytotoxic]
same,Potency,[8],"inconclusive: 33.5 µM [inhibitor, single point]"
same,Potency,[9],active: 21.3 µM
same,Potency,[10],"inconclusive: 26.8 µM [cytotoxic, single point]"
CCCCCCOC(=O)CCCCCCCC(=O)OCCCCCC,Potency,[1],inactive
same,Potency,[11],inactive
O=C1C=CC(=O)O1,Potency,[1],inactive
ClC(c1ccccc1)(c1ccccc1)c1ccccc1,Potency,[1],"inconclusive: 54.5 µM [cytotoxic, partial curve]"
c1ccc(OCc2ccc(CCCN3CCOCC3)cc2)cc1,Potency,[1],inconclusive: 33.5 µM [cytotoxic]
same,Potency,[11],"inconclusive: 43.6 µM [inhibitor, single point]"
same,Potency,[12],inactive
same,Potency,[13],inactive
same,Potency,[8],"inconclusive: 15 µM [inhibitor, partial curve]"
Cc1[nH]c(C)c(Cl)c(=O)c1Cl,"viability change, negative = cytotoxic",[1],inactive: 0.386% [at 19 µM]
CCC(Cc1ccccc1)(C(=O)c1ccc(N2CCOCC2)cc1)N(C)C (centres undefined),Potency,[1],"inconclusive: 61.1 µM [cytotoxic, single point]"
same,Potency,[3],"inconclusive: 68.6 µM [cytotoxic, partial curve, poor fit]"
same,Potency,[14],"inconclusive: 43.3 µM [falling, partial curve, poor fit]"
same,Potency,[15],"inconclusive: 127 µM [falling, partial curve, poor fit]"
same,Potency,[16],"inconclusive: 50.5 µM [cytotoxic, partial curve]"
same,Potency,[10],"inconclusive: 21.9 µM [cytotoxic, partial curve]"
